Measurements published in PubChem BioAssay AID686971 (National Center for Advancing Translational Sciences (NCATS), 2013).
The whole screen tested about 360,000 compounds, of which about 7,500 (2.1%) were called active. Inconclusive means that the source gave no clear call. Such entries were picked first, then a sample of the others. The call rests on the fitted dose curve; in most records, active means well fitted cell-killing curve with a large enough effect; inconclusive means small, poorly fitted or top-dose-only effect, or effect the other way, or another doubt; inactive means no such curve, though single readings can be large or run the other way. No potency is given beside an inconclusive call; the fits are too rough.

Assay: qHTS for induction of synthetic lethality in tumor cells producing 2HG: qHTS for the HT-1080-IDH1KD cell line;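 on activity, negative = toxicity: 0% = DMSO wells and -100% = cell-free medium wells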
Conditions: HT-1080 IDH1 knockdown viability, ATP luminescence, 48 h; activity, negative = toxicity: at 46.1 µM (top of the series) unless noted
How it was run: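 Viability of IDH1-knockdown HT-1080 fibrosarcoma cells was assessed by CellTiter-Glo after 48 h at 37 °C with titrated compound; concentration-effect curves were classified by fit quality and response size.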
Potency means the concentration at half of the fitted maximal effect; tags describe the fitted curve by direction and shape.

Row | SMILES | Potency | activity, negative = toxicity
1 | N#CC(=C1C=C(Br)C(=NO)C=C1Cl)c1cccc2ccccc12 | inconclusive [cytotoxic, single point] | 
2 | CC(C)C(=O)N(c1cc2sc(=O)oc2c2ccccc12)S(=O)(=O)c1cccs1 | inconclusive [cytotoxic, single point] | 
3 | O=C(Nc1ccc(S(=O)(=O)Nc2ncccn2)cc1)c1ccc(Br)o1 |  | inactive: 5.99%
4 | COc1ccc(NC2=C(NC(C)=O)C(=O)c3ccccc3C2=O)cc1 | inconclusive [cytotoxic, partial curve] | 
5 | COc1cc([N+](=O)[O-])cc(/C=N/NC(=O)c2ccc(NC(=O)c3ccc(C)cc3)cc2)c1O | inconclusive [cytotoxic, partial curve, poor fit] | 
6 | C[C@H](CO)N1C[C@H](C)[C@H](CN(C)C(=O)Nc2ccc3c(c2)OCCO3)OCc2cnnn2CCCC1=O |  | inactive: -1.8%
7 | OCCN1CCN(CC(O)COc2ccc(C34CC5CC(CC(C5)C3)C4)cc2)CC1 (configuration not stated) | active: 23.1 µM | 
8 | Cn1c(=O)n(C)c2cc(NS(=O)(=O)c3ccc(C(C)(C)C)cc3)ccc21 | inconclusive [cytotoxic, single point] | 
9 | CC1CC(C)(C)CC2(C1)NC(=O)N(CC(=O)N(Cc1ccccc1)c1ccccc1)C2=O (configuration not stated) | inconclusive [cytotoxic, single point] | 
10 | CCCNC(=O)NC(=O)CSc1cccc(C(F)(F)F)c1 |  | inactive: 2.15%
11 | Cc1c(CCOC(=O)CC23CC4CC(CC(C4)C2)C3)sc[n+]1CC(=O)c1ccccc1 | inconclusive [cytotoxic, partial curve] | 
12 | O=C(Nc1ccc(Cl)c(Cl)c1)Nc1nnc(-c2ccncc2)s1 |  | inconclusive: -4.98% [cytotoxic]
13 | O=C(C[C@H]1C(=O)N(Cc2ccccc2)C[C@@H]1Cc1ccccc1)Nc1ccc(Br)cc1 | inconclusive [cytotoxic, single point] | 
14 | S=C(NC1CCCCC1)N1CCc2ccccc2C1 | inconclusive [cytotoxic, partial curve] | 
15 | CCC1Cc2c(nc(N)c3c(N)nc(N4CCCCC4)c(C#N)c23)O1 (configuration not stated) | inconclusive [cytotoxic, single point] | 
16 | CC1CCN(CC(=O)n2c3c(c4ccccc42)CCCC3)CC1 | inconclusive [cytotoxic, single point] | 
17 | CCCCC(=O)Nc1nc(C)c(-c2csc(Nc3cc(OC)ccc3OC)n2)s1 | inconclusive [cytotoxic, partial curve] | 
18 | CC(C)(C)NC(=O)C(c1ccccc1)n1c(=O)c(-c2ccco2)nc2ccccc21 (configuration not stated) |  | inactive: -8.82%
19 | CCOc1ccc(OCCSc2nc3ccccc3c(=O)[nH]2)cc1 |  | inconclusive: 0.481%
20 | CCN1C[C@@H]2[C@@H]3C(=O)N(C)C(=O)[C@@H]3[C@](CC)(C1=O)N2C(=O)c1ccc(C(F)(F)F)cc1 |  | inactive: 10.9%
21 | CN(CC(=O)Nc1ccccc1Br)C(=O)c1sccc1-c1ccccc1 |  | inactive: -0.211%
22 | O=C1c2ccccc2C(=O)N1Cc1nn2c(-c3ccc(Cl)cc3)nnc2s1 |  | inactive: 5.43%
23 | Cc1ccc(S(=O)(=O)N2CCCCC2)cc1NC(=O)CSc1nnc(C2CC2)n1C |  | inactive: -1.92%
24 | C=CCn1c(SCC(C)=O)nc2scc(-c3ccc(C)o3)c2c1=O | inconclusive [cytotoxic, partial curve] | 

Row | SMILES | Potency | activity, negative = toxicity
25 | COCCn1c(SCC(=O)Nc2ccc(C(C)=O)cc2)nc2c([nH]c3ccccc32)c1=O |  | inconclusive: -21.7% [cytotoxic]
26 | CC(=O)OC[C@H]1O[C@@H](n2ncc(=O)[nH]c2=O)[C@H](OC(C)=O)[C@@H]1OC(C)=O | inconclusive [cytotoxic, full curve] | 
27 | COc1cc(-c2cc(=O)c3c(O)c(OC)c(OC)c(O)c3o2)ccc1O | inconclusive [cytotoxic, single point] | 
28 | COCCNC(=O)C1CCCN(C(=O)Cc2cccc3ccccc23)CC1 (configuration not stated) |  | inactive: 25.9%
29 | CC(CCc1ccccc1)NC(=O)CNC(=S)N(Cc1cccs1)C1CCCC1 (configuration not stated) | inconclusive [cytotoxic, single point] | 
30 | C/C=C/Cn1c(SCc2ccc(Cl)cc2)nc2c1c(=O)[nH]c(=O)n2C | inconclusive [cytotoxic, single point] | 
31 | S=C(NCCc1cccc(Cl)c1)NC1CCCCC1 | inconclusive [cytotoxic, single point] | 
32 | O=C(CCl)Nc1cccc2ncccc12 | inconclusive [cytotoxic, single point] | 
33 | O/N=C\c1ccccc1Oc1ccc(F)cc1 |  | inactive: -17.8%
34 | CCC(C)c1ccccc1N1CC(C(=O)NCCC2=CCCCC2)CC1=O (configuration not stated) |  | inactive: 0.627%
35 | Cc1ccc(NC(=O)CCSc2nc(C)cc(C)n2)cc1 |  | inactive: 22.2%
36 | COc1ccc(N2CCN(C(=O)CN3c4cccc5cccc(c45)S3(=O)=O)CC2)cc1 |  | inactive: -11%
37 | O=C(c1ccc2c3c(cccc13)CC2)C1CCCN(Cc2ccc(OCCO)cc2)C1 (configuration not stated) | inconclusive [cytotoxic, single point] | 
38 | COc1cc(NC(=S)Nc2cccnc2)cc(OC)c1OC |  | inactive: 7.03% [at 9.24 µM]
39 | CC(C)=NNc1nc2c(c(=O)[nH]c(=O)n2C)n1CCCc1ccccc1 | inconclusive [cytotoxic, single point] | 
40 | Cc1cc(C)nc(N/N=C/c2cc(Br)ccc2O)n1 | inconclusive [cytotoxic, single point] | 
41 | CCN1CCN(c2ncc(C(=O)Nc3cc(Cl)ccc3OC)c3ccccc23)CC1 | inconclusive [cytotoxic, single point] | 
42 | O=C(CSc1nnc(Nc2ccccc2)s1)NC1CC1 |  | inactive: 0.668%
43 | Cc1ccc(NC(=O)C(C)NS(=O)(=O)c2ccc(F)cc2)cc1C (configuration not stated) |  | inactive: -4.72%
44 | Cc1ccc(NC(=C(C#N)C#N)c2ccccc2)cc1 |  | inactive: -10.8%
45 | Cc1cc(C)n(CCN(C)Cc2nc(Cc3ccccc3F)no2)n1 | inconclusive [rising, single point] | 
46 | COc1ccc(Br)cc1[C@H]1[C@@H]2C=CCC[C@@]2(C)C(=O)N1Cc1ccccc1 | inconclusive [cytotoxic, single point] | 
47 | O=C(C(O)c1ccc(Br)cc1)N1CCC(Nc2ccc3[nH]ncc3c2)CC1 (configuration not stated) | inconclusive [cytotoxic, single point] | 
48 | CCOC(=O)/C(C#N)=C/c1cc2cc(C)c(C)cc2nc1Cl |  | inactive: 1.41%

Row | SMILES | Potency | activity, negative = toxicity
49 | CC1CCN(c2ccc(/C=C(\C#N)c3nn(-c4ccccc4)c(N)c3C#N)cc2[N+](=O)[O-])CC1 | inconclusive [cytotoxic, single point] | 
50 | Cc1ccc(CN(C)C(=O)CCNS(=O)(=O)c2ccccc2)o1 |  | inactive: 3.88%
51 | C=CCn1c(C(C)NC(=O)CCC)nc2ccccc21 (configuration not stated) | inconclusive [rising, single point] | 
52 | COc1ccc(NC(=O)c2nn(C)c(=O)c3ccccc23)cc1S(=O)(=O)Nc1ccccc1Cl |  | inactive: -24.2%
53 | COC(=O)[C@]1(Cc2ccccc2)N[C@H](c2ccc(-c3cc(C(C)=O)cs3)cc2)[C@@H]2C(=O)N(C)C(=O)[C@@H]21 |  | inactive: 6.04%
54 | CCOc1ccc(C(C)=O)cc1COC(=O)c1ccc2c(c1)NC(=O)CS2 | inconclusive [cytotoxic, single point] | 
55 | CC(C)Cn1c(Cc2ccccc2)n[nH]c1=S | inconclusive [cytotoxic, single point] | 
56 | CCCn1ncc(CN2CCC(n3nccc3NC(=O)c3ccccc3OC)CC2)c1C |  | inactive: 15.2%
57 | Cc1cccc(NC(=O)c2nc[nH]c2C(=O)N[C@@H](CC(C)C)C(=O)OC(C)(C)C)c1 | inconclusive [cytotoxic, single point] | 
58 | CCOC(=O)C1(C(=O)OCC)C(C(=O)c2ccccc2)C1c1ccccc1 (configuration not stated) |  | inactive: 2.3%
59 | COc1ccc(-c2noc(-c3cccc(Cl)c3)n2)cc1OC | inconclusive [rising, partial curve, poor fit] | 
60 | C=CCc1ccccc1Oc1cc(OC)nc(N)n1 |  | inactive: 3.77%
61 | COc1ccc(NC(=O)COc2nsnc2N2CCCCC2)cc1 |  | inactive: 3.96%
62 | Cc1cc(C)n(-c2ccc(NC(=O)C3CCCCN3C(=O)c3sccc3C)cc2)n1 (configuration not stated) |  | inactive: 16.4%
63 | CC(C)[C@H](NC(=O)[C@H]1N2C(=O)c3ccccc3C2SC1(C)C)C(=O)NCc1ccco1 (some centres not stated) |  | inactive: 13.8%
64 | COc1ccc(N2CC(O)=C(c3n(C)c4ccccc4[n+]3C)C2=N)cc1 |  | inactive: 22.6%
65 | CN(C)CCCN(C(=O)c1ccc(C(=O)c2ccccc2)cc1)c1nc2cc3c(cc2s1)OCO3 | inconclusive [cytotoxic, single point] | 
66 | CC(C)c1onc(C(=O)N2CCCCC2C)c1[N+](=O)[O-] (configuration not stated) |  | inconclusive: 30.4%
67 | NC(=O)c1ccc(Oc2ccc(Cl)c3ccccc23)c([N+](=O)[O-])c1 | inconclusive [cytotoxic, partial curve] | 
68 | CCOc1ccc(NC(=O)Nc2ccc(Cc3ccncc3)cc2)cc1 |  | inconclusive: -24.7% [cytotoxic]
69 | Cc1nn(-c2ccccc2)c2c1C1(C(=O)Nc3ccccc31)N1C(=N2)Sc2ccccc21 (configuration not stated) | inconclusive [cytotoxic, single point] | 
70 | O=C1N(c2ccccc2)C[C@@H]2C[C@@H](c3cccs3)N3CCC[C@@]123 |  | inactive: -2.7%
71 | CCOC(=O)Nc1ccc(C(=O)/C=C/c2ccccc2)cc1 | inconclusive [cytotoxic, single point] | 
72 | COc1ccc2c(c1OC)C(=O)N(c1nc(SC)n[nH]1)C2=O |  | inconclusive: 34.8%
